# According to patent US20240034784A1 (published 2024):
# Residue numbers refer to the chain shown, from its start.
# B1: sdab-47-hIgG1Fc (Fc fusion)
# chain: QVKLEESGGGLVQAGGSLRLSCAVSGNFLNIVTMGWYRQAPGKQRELVATTTRGGTTNYSDSVKGRFTISRDNAKNTVYLQMNSLKPEDTAVYYCNADIIPGFLQQLTVHWGQGAQVTVSS[sequence of human IgG1 Fc with C220G (EU numbers) omitted]
# B2: sdab-42-hIgG1Fc (Fc fusion)
# chain: EVQLVESGGGLVQAGGSLRLACAASGRAIGTYDTNWYRQAPGQQREFVAFINYRGGGATYADSVKDRFTISRDNAANTVYLQMNSLKPEDTAIYLCNAHERFPMGRPPYDYWGQGTQVTVTS[sequence of human IgG1 Fc with C220G (EU numbers) omitted]
# B3: sdab-48-hIgG1Fc (Fc fusion)
# chain: QVKLEESGGGLVQAGGSLGLSCAASGTILHVMVMGWYRQAPGKQRELVATQTIGGTTNYADSVKGRFTISRDNAKNTVYLQMNTLTPGDTAVYYCNADVVYGLARSGNYWGPGTQVTVSS[sequence of human IgG1 Fc with C220G (EU numbers) omitted]
# B4: sdab-44-hIgG1Fc (Fc fusion)
# chain: EVQLVESGGGLVQAGGSLRLSCAASGSIYRINTVAWYRQAPGKQRELVAEITSSGNRDYADSVKGRFTISRDNAKNTVYLQMNSLKPEDTAVYSCNAFIIPSVGLFTSRTYWGRGTQVTVSS[sequence of human IgG1 Fc with C220G (EU numbers) omitted]
# B5: sdab-50-hIgG1Fc (Fc fusion)
# chain: B4 chain with E1Q, Q3K, V5E, T33A, V34M, L47Y, S54T, R57T, K75E, L105M
# B6: sdab-39-hIgG1Fc (Fc fusion)
# chain: QVKLEESGGGLAEAGGSLRLSCVASGSIFMIVTMGWYRQAPGKQRELVASITRGGSTNYADFVKGRFTISRDNAKNTVYLQMNSLKPEDTAVYFCNADDVPPLTLTRVIYWGQGTQVTVSS[sequence of human IgG1 Fc with C220G (EU numbers) omitted]
# B7: sdab-40-hIgG1Fc (Fc fusion)
# chain: QVQLVESGGGLVQAGGSLRVSCAASGRTSSIYDMAWYRQAPGNEREFVARIVWRSGGSTSYADSVKGRFTISRNTAKNTVYLQMNSLKPEDTAMYYCRAFEFPLQIGGQNVYYWGQGTQVTVSS[sequence of human IgG1 Fc with C220G (EU numbers) omitted]
# B8: sdab-43-hIgG1Fc (Fc fusion)
# chain: EVQLVESGGGLVQAGGSLRLSCEASGPARNNYYMGWFRQAPGKERELVARINLSGSSIYYADSVKGRFTISRDNAKNTMSLQMNSLKPGDAARYYCHARDIVPGAQDYWGQGTQVTVSA[sequence of human IgG1 Fc with C220G (EU numbers) omitted]
# B9: sdab-49-hIgG1Fc (Fc fusion)
# chain: QVQLVESGGDLVQAGGSLRLSCAASGSPFGFVVMGWHRQAPGKQRELVAMLTSSGTTNYADSVKGRFTLSRENTKNTVHLQMNKLKPEDTAVYYCRAVLRSGSDWRAAANEYWGQGTHVTVSS[sequence of human IgG1 Fc with C220G (EU numbers) omitted]
# B10: sdab-45-hIgG1Fc (Fc fusion)
# chain: QVKLEESGGGLVQAGGSLRLSCAASGSISGINYMAWYRQAPGKQRDLVARAWTTGPPTYAESVKGRFTISRDNAKNTVYLQMNNLKPEDTGVYYCTANTLTSGYWGQGIQVTVSS[sequence of human IgG1 Fc with C220G (EU numbers) omitted]
# B11: sdab-41-hIgG1Fc (Fc fusion)
# chain: QVQLVESGGDLVQAGGSLRLSCAASGSPFGFVVMGWYRQAPGKQRDMVATLTSSGATTYADSVKGRFTLSRENAKNTIHLQMNSLKPEDTAVYYCRAVLRSGDNWMAAANEYWGQGTHVTVSS[sequence of human IgG1 Fc with C220G (EU numbers) omitted]
# B12: CLDN18.2-vhh42-2.2 (Fc fusion)
# chain: QVQLVESGGGVVQPGGSLRLSCAASGFTFSTYDTNWYRQAPGKGREFVAFINYRGGGATYADSVKDRFTISRDNSKNTLYLQMNSLRAEDTAVYYCAAHERFPMGRPPYDYWGQGTLVTVSS[sequence of human IgG1 Fc with C220G (EU numbers) omitted]
# B13: CLDN18.2-vhh42-1.1 (Fc fusion)
# chain: B12 chain with F27R, T28A, F29I, S30G
# B14: CLDN18.2-vhh32-1.2 (Fc fusion)
# chain: EVQLVESGGGLVQPGGSLRLSCAASGFTVSSTYMGWFRQAPGKGRELVSRIAGGGQINYADSVKGRFTISRDNSKNTLYLQMNSLRAEDTAVYYCAAHYWMDYWGQGTLVTVSS[sequence of human IgG1 Fc with C220G (EU numbers) omitted]
# B15: CLDN18.2-vhh09-1.3 (Fc fusion)
# chain: EVQLVESGGGLVQPGGSLRLSCAASRSDLFISIMGWYRQAPGKGREWVSDISRGGKTNYADAVKARFTISRDNSKNTLYLQMNSLRAEDTAVYYCAAQISNPFWGDYWGQGTLVTVSS[sequence of human IgG1 Fc with C220G (EU numbers) omitted]
# B16: CLDN18.2-vhh29-2.1 (Fc fusion)
# chain: QVQLVESGGGLVKPGGSLRLSCAASGSIYRINNMAWYRQAPGKGRELVSEITSSGNTLYADSVKGRFTISRDNAKNSLYLQMNSLRAEDTAVYYCAAFIIPSVGVFISRTFWGQGTLVTVSS[sequence of human IgG1 Fc with C220G (EU numbers) omitted]
# B17: CLDN18.2-vhh29-2.3 (Fc fusion)
# chain: B16 chain with L47W
# B18: CLDN18.2-vhh50-2.1 (Fc fusion)
# chain: EVQLVESGGGLVQPGGSLRLSCAASGSIYRINAMAWYRQAPGKGREYVSEITSTGNTDYADSVKGRFTISRDNSKNTLYLQMNSLRAEDTAVYYCAAFIIPSVGMFTSRTYWGQGTLVTVSS[sequence of human IgG1 Fc with C220G (EU numbers) omitted]
# B19: CLDN18.2-vhh25-2.1 (Fc fusion)
# chain: B18 chain with A33N, Y47L, I51S, T54G, T57F, D58I, M105V, T107A
# B20: CLDN18.2-vhh29-3.1 (Fc fusion)
# chain: B16 chain with Q1E, K13Q, A74S, S77T
# B21: CLDN18.2-vhh50-1.1 (Fc fusion)
# chain: B18 chain
# B22: CLDN18.2-vhh29-1.1 (Fc fusion)
# chain: B16 chain with Q1E, V12I, K13Q, A74S, S77T, L117T
# B23: CLDN18.2-vhh25-1.1 (Fc fusion)
# chain: B18 chain with A33N, Y47L, I51S, T54G, T57F, D58I, M105V, T107A
# B24: CLDN18.2-vhh50-2.3 (Fc fusion)
# chain: B18 chain with Y47W
# Target: T1, human Claudin 18.2 (human, UniProt P56856 1-261)
# Assay: FACS
row,EC50 [nM],Binder
1,2.06,B1
2,1.5,B2
3,2.97,B3
4,1.82,B4
5,2.29,B5
6,1.38,B6
7,2.35,B7
8,1.62,B8
9,10.6,B9
10,2.5,B10
11,3.66,B11

# Target: T1, human Claudin 18.2
# Assay: FACS
# Remark: another data set of the same source
row,EC50 [nM],Binder
1,1.96,B12
2,3.79,B13
3,2.63,B14
4,4.71,B15
5,2.73,B16
6,1.8,B17
7,3.13,B18
8,3.3,B19
9,1.75,B20
10,2.41,B21
11,2.05,B22
12,2.28,B23
13,3.78,B24

# Target: T1, human Claudin 18.2
# Assay: FACS
# Remark: another data set of the same source
row,EC50 [nM],Binder
1,3.81,B2
2,3.57,B4
3,4.25,B5
4,4.31,B7
5,3.7,B8
6,7.1,B10
